Experimental data: the supplement of paper PMC11417369
± gives the standard deviation of the averaged measurements. The list shows a part of the results.

Each sequence was assayed on PfAP2-EXP AP2 domain (GST-tagged) (assay: gcPBM binding intensity (ln(normalized median fluorescence intensity)); higher = stronger DNA binding).
Summary of the method: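 Binding intensity is defined as the maximum Masliner-normalised natural-log median intensity across replicate spots for either probe orientation. It was measured on an Agilent 4 × 180k array of primer-extended double-stranded 36-bp intergenic genomic probes and negative controls, to which GST-tagged P. falciparum DNA-binding domains made in E. coli were applied for 1 h in 1× PBS with 1% milk, 0.2 mg/ml BSA, 0.5% salmon testes DNA and 0.03% Triton X-100. Detection was by Alexa488 anti-GST antibody and scanning at 488 nm.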

| Sequence | gcPBM binding intensity (ln) |
| --- | --- |
| CAAATATATATTTTCTGTACAAATACAATTAATACT [XGTACX_site2694] | 8.5 ± 0.4 |
| AGATATTAAAACGTTACACACATTTATATATCTTCT [CACACA_site908] | 8.48 ± 0.46 |
| TTCCAAAATTGCATTTGTACCCAAAAAATGTATACG [XGTACX_site7680] | 8.59 ± 0.41 |
| GTAAGTTTGAATACACGTACAAATTTATTAAAGTCC [XGTACX_site6722] | 8.81 ± 0.35 |
| ATATTATTAATTTATAGTACTCATTTTTTTTTTTTT [XGTACX_site3536] | 8.45 ± 0.33 |
| ATCAGTCGGCAGGACAGTACACAGTAGCCAGGAAAT [XGTACX_site2003] | 8.82 ± 0.52 |
| GCTTTTTATTTTTACCGTACATTATATATGTATATA [XGTACX_site808] | 9.17 ± 0.37 |
| AACGCGAACAATTTATAGATAACTTTTAATTATTAT [GTGCAC_negctrl_site179] | 8.31 ± 0.44 |
| ATATATATATTTGTGTGTACATATTAATTTGTATGA [XGTACX_site4047] | 9.45 ± 0.19 |
| ATACATTTTTGTAAAAGTACATATACATGCCCCCTT [XGTACX_site1367] | 9.62 ± 0.19 |
| ATGGTATATCCAAATAAACACACGTAAATACATAAA [CACACA_site1682] | 8.69 ± 0.45 |
| ATTTAATACAAATACACACACAAATATATACATATA [CACACA_site3747] | 8.55 ± 0.54 |
| TATATATATATAAACTGTACTATTTTATGTTAAAAG [XGTACX_site3630] | 9.96 ± 0.13 |
| AATATATATATAGGATGTACACATAATTCAAATACA [XGTACX_site6368] | 8.8 ± 0.4 |
| AGTAGATATAATTATAGTACTTTGATGTTTTCTTTA [XGTACX_site5038] | 8.39 ± 0.45 |
| TGGCAAAATAGGCACACACACATATACATCTATATT [CACACA_site6626] | 8.6 ± 0.45 |
| ATATGATAAATTATATGTACTTAAAATATATTATAA [XGTACX_site5904] | 8.26 ± 0.18 |
| TTTTTTTTTAGAAAAACATGCATGTCCTAAAAATAA [TGCATGCA_site684] | 8.89 ± 0.27 |
| AAAAAAAAAAAAAAAAAAAAAAAAACAATGAATTTA [GTGCAC_negctrl_site698] | 9.15 ± 0.14 |
| CACAGAAATAGAGATACACACACACCGATATTTATG [CACACA_site9313] | 8.68 ± 0.44 |
| ATAGTTATTTTATAGCGTACACAATAAATATATAAA [XGTACX_site4445] | 8.63 ± 0.28 |
| TTTTTCTATATTTTCTTTTATAAAATATATAATTTT [GTGCAC_negctrl_site345] | 8.32 ± 0.4 |

| Sequence | gcPBM binding intensity (ln) |
| --- | --- |
| GTCATATATTATAATAGTACATAAATAATTGATGCC [XGTACX_site3567] | 8.53 ± 0.085 |
| TAAACAGTATGCAACGCATGCGTTGTTATATATAAA [TGCATGCA_site232] | 9.2 ± 0.34 |
| AAATTTTCTTTTAAGTGTACGAAATTTAGTATTTCA [XGTACX_site7819] | 8.38 ± 0.44 |
| ATGTATTTATTATTTAGTACACATTATTTTCTTATA [XGTACX_site6365] | 8.68 ± 0.2 |
| TATATATAAATATATACACACATGAAAATAAATAAA [CACACA_site2514] | 8.51 ± 0.4 |
| TTTTTGTTTGTTCACGACTACATTATGTCATAAATG [CACACA_negctrl_site597] | 8.64 ± 0.4 |
| ATTTTTTTTTTTTTTTTTTTATTCTTAATTCATATA [CACACA_negctrl_site342] | 8.24 ± 0.5 |
| AGCATTTTAAAAGAAAAAAAAAAAAAAAAAAAAATA [GTGCAC_negctrl_site723] | 7.97 ± 0.51 |
| ATATATATATATTATACACACAAAAATATTTTGTAT [CACACA_site266] | 9.65 ± 0.26 |
| ATCTATGTTCCTTTTACACACATAATCTTTTTTTTA [CACACA_site5468] | 9.02 ± 0.45 |
| CGTGGGAGCAGACACACACACACACGCATATTTATA [CACACA_site6290] | 8.42 ± 0.51 |
| ATGGACAAAAAATATATACACACGAGGAAACCAACA [CACACA_site3726] | 9.05 ± 0.53 |
| CATGCATACTACATCTGTACACATACATTATATTTA [XGTACX_site2495] | 8.9 ± 0.37 |
| TTTTGTTTTTACGAATACTTTTTTAATTTTATTTAT [TGCATGCA_negctrl_site395] | 8.41 ± 0.34 |
| TCTTGTTATTTAAATGCATGTTGATTTTAAAAAATT [TGCATGCA_site840] | 8.81 ± 0.4 |
| AATAAAAAGTAATAATAACGTATAATTTATTATACT [TGCATGCA_negctrl_site414] | 8.29 ± 0.4 |
| TATACTTTATATATTTTGTATATATATTTTTTTTAT [TGCATGCA_negctrl_site530] | 8.43 ± 0.31 |
| GTAAATTATATAACAAATAAAAATGTACATATATAT [CACACA_negctrl_site408] | 8.77 ± 0.35 |
| ATATATATAGATTGTACACACATTTATGCATATATA [CACACA_site3222] | 8.98 ± 0.23 |
| ATAACATTCTATGTTGCACACAAAGAGAAAAATTTA [CACACA_site9322] | 8.37 ± 0.43 |
| ACGCAATATTAACAAGTGCATTATAACACATAACAT | 8.74 ± 0.3 |
| TTATATATTAATAGTAGTACTATATTGAATCACCCC [XGTACX_site2868] | 9.4 ± 0.59 |

| Sequence | gcPBM binding intensity (ln) |
| --- | --- |
| TTATTTTTGTTTTGAAGTACAAAAAAATATATTCTT [XGTACX_site6416] | 8.23 ± 0.23 |
| AAAATTTATATAAGCACACAAATATATATTTATATC [CACACA_site3291] | 8.55 ± 0.47 |
| AGTTTATAGTGATATTGTACATATATATATATATAT [XGTACX_site572] | 10.2 ± 0.66 |
| TATTTATACTCAACTTTCTGTTATTCCAACTTTTTT [XGTACX_negctrl_site410] | 8.77 ± 0.39 |
| ACATAAGAACATATTTGTACGTATATAAATTAAATA [XGTACX_site6127] | 8.54 ± 0.42 |
| ACAACAAAAATAAGCACACACAAATATACATACATA [CACACA_site7664] | 8.79 ± 0.26 |
| TTTTAAATCTTATATTCCCCACATAAATAGCTCTCT [GTGCAC_negctrl_site665] | 8.43 ± 0.35 |
| ATATATATATATGTGTGTACATATATGTGGATGGAT [XGTACX_site6240] | 10 ± 0.43 |
| AGGTAGAAAAAAGACACACACATTATGTATATATAT [CACACA_site377] | 8.88 ± 0.22 |
| TTATAGGATCAAGCGCGTACATATCTTTATAAAAGA [XGTACX_site5775] | 8.72 ± 0.53 |
| GCAAATATGTTGATATGTACATATATATATATATAT [XGTACX_site445] | 10.2 ± 0.45 |
| TATTTCTTTATTGGCACACATTTTTTCAATTATATA [CACACA_site4975] | 8.84 ± 0.32 |
| ATATACAAATATATATATATATATATATATATATAT [CACACA_negctrl_site886] | 10.1 ± 0.58 |
| AAAAAATATACATATACACACATATGTATATATAAT [CACACA_site8676] | 8.16 ± 0.3 |
| ATTATTTTAATAAAACGTACAAAATATAAATCAAAA [XGTACX_site3770] | 8.73 ± 0.45 |
| TTTTTTCATATAAATACATGCACACAAAAATATCAA [TGCATGCA_site602] | 9.08 ± 0.26 |
| AATAACAAAATATTAACACACATAACATATTATAAA [CACACA_site2803] | 8.48 ± 0.34 |
| TAATGTTTTTTTTGTTTACCAAAAATAATACATTAT [CACACA_negctrl_site203] | 8.09 ± 0.47 |
| AATATAAAAATATAAAAACACACGTAAAAAAATTTA [CACACA_site3399] | 8.77 ± 0.65 |
| TATATTCTTTTAAACAGTACACACACACATATATAT [XGTACX_site1701] | 8.96 ± 0.44 |
| AAAAAAATTAAAAATAAAGAAAAAAAAAAAAAAAAA [GTGCAC_negctrl_site401] | 8.04 ± 0.66 |
| GAATATTTATCATGGGGTACCTTAAAAAAGGGAAAA [XGTACX_site298] | 8.55 ± 0.49 |

| Sequence | gcPBM binding intensity (ln) |
| --- | --- |
| TTTTATTTATAATATATACACACTAACATTATTTAT [CACACA_site1284] | 8.27 ± 0.34 |
| ATATCTTAAATTATTTGTACATATATATATATATAT [XGTACX_site8034] | 10.3 ± 0.27 |
| AATATAAACCCAAACACACACATATATATATATATA [CACACA_site268] | 9.98 ± 0.41 |
| TTTTTTTTTTTGAGGAGGACACAAAAATATGCTACC [XGTACX_site756] | 8.53 ± 0.26 |
| TTAACGCTTATTTTTTGTACTTATTTTATTTTAAAT [XGTACX_site3977] | 8.85 ± 0.37 |
| ACTCTATAATAAAATACACACAAGACTATCTAATAT [CACACA_site1796] | 8.51 ± 0.45 |
| CAACATTAATATAAAGCACACATATATATAATATAT [CACACA_site8064] | 8.51 ± 0.31 |
| ATATATACATATAATTGTACTTGTGTTGTTTTTCTT [XGTACX_site1870] | 8.78 ± 0.47 |
| TGTAGATATTATATATGTACGCATATGAAATATATA [XGTACX_site1586] | 8.47 ± 0.12 |
| GTAATATCAATATAAAGTACACACTATAGTATGTAT [XGTACX_site4714] | 8.4 ± 0.36 |
| TTCAAAATATATATTTGTACATATAGGATCTTTTTC [XGTACX_site4500] | 8.41 ± 0.45 |
| AAAATATATAATATAACACACATATATTCTATATGG [CACACA_site4044] | 8.14 ± 0.27 |
| TAATTATATAAATATTGTACAAAAAAAATATATATA [XGTACX_site3137] | 8.62 ± 0.42 |
| TCTTTTTTTTTTTTTTTTTTTTTTTTTTTTTTTTTT [GTGCAC_negctrl_site18] | 9.3 ± 0.18 |
| TTTTCTTTTTAAATTACACACACATATATATATGTA [CACACA_site9172] | 8.54 ± 0.4 |
| ATAAAACCAACATAGAGTACAGATCGACTATGTTTC [XGTACX_site4329] | 8.72 ± 0.46 |
| ATTTTAATGACATATACACACAAAGGTTCATAACAA [CACACA_site5664] | 8.53 ± 0.4 |
| ACTATTTAAAAATATGGTACACGAAATTCAAGAGAA [XGTACX_site5903] | 8.77 ± 0.42 |
| ATATATATATATGTATGTATATATATATGTTTGATT [XGTACX_negctrl_site62] | 10.16 ± 0.064 |
| ATGAATTAACCTAATCGTACAATAAATATTATTATA [XGTACX_site596] | 8.3 ± 0.4 |
| TTTTTTATTTTGTTGAAGCAATGAAAATGAATGAAA [TGCATGCA_negctrl_site495] | 8.52 ± 0.38 |
